From PubChem BioAssay AID485294 (National Center for Advancing Translational Sciences (NCATS), 2010)
Screen size: about 370,000 compounds; about 150 (0.041%) were called active. Inconclusive means that the source gave no clear call. Such entries were picked first, then a sample of the others. Calls follow the shape of the dose curve; as a rule, active = well fitted inhibition curve with a large enough effect; inconclusive = small, poorly fitted or top-dose-only effect; inactive = flat fitted curve, though single readings scatter. Potencies of inconclusive entries are left out as doubtful fits.

Target: Beta-lactamase (Escherichia coli (strain K12)) (UniProt P00811)
Experiment: qHTS Inhibitors of AmpC Beta-Lactamase (assay with detergent); also: nearly all actives have a fitted effect of over 25% in size;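 as to activity change, negative = inhibition: 0% = no-compound wells and -100% = no-enzyme wells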
Settings: AmpC hydrolysis of nitrocefin, absorbance 480 nm, 0.01% Triton; activity change, negative = inhibition: at 114 µM (top of the series)
How it was run: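 AmpC (5.3 nM in the dispensed reagent) in 20 mM phosphate pH 7.0 with 0.01% (detergent screen) or 0.0001% Triton X-100 was preincubated with compounds for 15 min at room temperature. Nitrocefin was then added from an 800 uM solution, and hydrolysis was followed at 480 nm.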
Potency is read from the fitted curve at half-maximal effect; tags tell the direction and shape of the fitted curve.

UniProt P00811, sequence (P00811 whole entry, looked up): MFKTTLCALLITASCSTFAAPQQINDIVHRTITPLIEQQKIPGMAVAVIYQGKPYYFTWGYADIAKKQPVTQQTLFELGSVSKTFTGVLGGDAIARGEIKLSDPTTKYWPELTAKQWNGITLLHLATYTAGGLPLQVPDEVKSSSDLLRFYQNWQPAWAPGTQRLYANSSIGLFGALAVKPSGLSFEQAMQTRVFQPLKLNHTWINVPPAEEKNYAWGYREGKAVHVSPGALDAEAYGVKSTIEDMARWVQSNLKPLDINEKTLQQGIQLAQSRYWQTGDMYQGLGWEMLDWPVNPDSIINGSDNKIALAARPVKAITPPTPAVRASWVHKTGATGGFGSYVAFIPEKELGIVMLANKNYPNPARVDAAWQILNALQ

**Q.** For O=C(NC1CCCCCCC1)C1c2ccccc2C(=O)N1Cc1ccco1 (stereo not given), which Potency is on record?
**A.** inconclusive [inhibitor, single point]

**Q.** With O=C(Nc1ccc(Oc2ccc(Cl)cc2)cc1)c1ncn[nH]1 as the compound, how does the “activity change, negative = inhibition” value read?
**A.** inactive: -17.4%

**Q.** NCCc1ccc(S(=O)(=O)F)cc1 was tested. Which Potency did it give?
**A.** inconclusive [inhibitor, full curve, poor fit]

**Q.** For COC(=O)C1=C(c2ccc3ccccc3c2)C[C@@H]2CC[C@H]1N2C(=O)NCc1ccc(C(F)(F)F)cc1, which “activity change, negative = inhibition” value is on record?
**A.** inactive: -5.54%

**Q.** For Cc1ccccc1OCC(=O)N1CCc2ccccc2C1, which “activity change, negative = inhibition” value is on record?
**A.** inactive: 4.01%

**Q.** Which “activity change, negative = inhibition” value does the source give for CC(=O)Oc1ccc2c(=O)c(-c3ccccc3)coc2c1 here?
**A.** inactive: -7.84%

**Q.** With Cc1ccc(-n2cc(CCCCCCCCC(=O)O)nn2)cc1 as the compound, how does the Potency read?
**A.** inconclusive [inhibitor, partial curve, poor fit]

**Q.** With O=C(Nc1nc2ccccc2s1)c1cc2c(s1)-c1ccccc1OC2 as the compound, how does the Potency read?
**A.** inconclusive [inhibitor, full curve, poor fit]

**Q.** For CC(CN1CCCC(C(N)=O)C1)c1ccccc1 (stereo not given), which Potency is on record?
**A.** inconclusive [inhibitor, full curve]

**Q.** CC(C)CC(=O)NC(=S)Nc1ccc(N2CCCC2)c(Cl)c1 was tested. Which Potency did it give?
**A.** inconclusive [inhibitor, full curve, poor fit]

**Q.** COc1ccccc1CCNC(=O)Cc1c(C)c2c(O)cc(C)cc2oc1=O was tested. Which “activity change, negative = inhibition” value did it give?
**A.** inactive: 12.3%

**Q.** O=C(Cn1nnc(-c2ccccc2)n1)N/N=C/c1cc([N+](=O)[O-])ccc1O was tested. Which “activity change, negative = inhibition” value did it give?
**A.** inactive: 1.44%

**Q.** How did the Potency turn out when Cc1cc(C)cc(NC(=O)C2CCCC2)c1 was run?
**A.** inconclusive [inhibitor, full curve, poor fit]

**Q.** For Nc1ccc(C(=O)O)cc1, which Potency is on record?
**A.** inconclusive [inhibitor, full curve, poor fit]

**Q.** Which “activity change, negative = inhibition” value does the source give for O=[N+]([O-])c1ccc(N2CCN(CCO)CC2)cc1Sc1ccccn1 here?
**A.** inactive: -3.34%

**Q.** CCN1CCCC(OC(=O)C(c2ccccc2)c2ccccc2)C1 (stereo not given) was tested. Which Potency did it give?
**A.** inconclusive [inhibitor, full curve, poor fit]

**Q.** How did the Potency turn out when COc1ccc(Cl)cc1NC(=O)CN(C)C(=O)CCc1nc2ccccc2c(=O)[nH]1 was run?
**A.** inconclusive [inhibitor, single point]

**Q.** Which Potency does the source give for CC(C)CNC(=O)CN(C1CCCCC1)S(=O)(=O)c1ccccc1 here?
**A.** inconclusive [inhibitor, partial curve]

**Q.** How did the Potency turn out when CC(C)(C)OC(=O)N1CCC(CC2CC(c3ccc(Cl)cc3)=NO2)(C(=O)NCC2CCCCC2)CC1 (stereo not given) was run?
**A.** inconclusive [inhibitor, single point]

**Q.** How did the “activity change, negative = inhibition” value turn out when CCO[C@H]1OC(C(=O)N2CCN(Cc3ccc4c(c3)OCO4)CC2)=C[C@@H](C2CCCCC2)[C@@H]1CCCO was run?
**A.** inactive: 5.69%

**Q.** Which Potency does the source give for COC(=O)C1=C(CSc2nc3c(cc2C#N)CN(C)CC3)OC(N)=C(C#N)C1c1ccc(F)cc1 (stereo not given) here?
**A.** inconclusive [inhibitor, partial curve]

**Q.** For COc1ccc(CC(=O)OCC(=O)Nc2ccc3c(c2)OCCO3)cc1OC, which Potency is on record?
**A.** inconclusive [inhibitor, full curve, poor fit]

**Q.** COc1ccc(NC(=O)Nc2ccc(Cc3ccncc3)cc2)cc1OC was tested. Which “activity change, negative = inhibition” value did it give?
**A.** inactive: 2.51%

**Q.** For Cc1ccc2nc(C3CCCN(C(=S)Nc4ccccc4C)C3)[nH]c2c1 (stereo not given), which Potency is on record?
**A.** inconclusive [inhibitor, partial curve, poor fit]

**Q.** How did the Potency turn out when O=C(Nc1ccc2nc(-c3cccnc3)[nH]c2c1)c1ccco1 was run?
**A.** inconclusive [inhibitor, full curve, poor fit]

**Q.** For CCOC(=O)N1CCC(NC(=O)Cn2nc(-c3ccccc3)ccc2=O)CC1, which “activity change, negative = inhibition” value is on record?
**A.** inactive: -6.6%

**Q.** How did the Potency turn out when CC(C)OC(=O)c1c(-c2ccc(C(C)C)cc2)csc1NC(=O)C1CCCO1 (stereo not given) was run?
**A.** inconclusive [inhibitor, single point]

**Q.** COc1ccccc1-c1c(C)nn2c(N3CCOCC3)cc(C)nc12 was tested. Which “activity change, negative = inhibition” value did it give?
**A.** inactive: -1.37%

**Q.** Which Potency does the source give for CCS(=O)(=O)n1nc(-c2ccccc2)nc1N here?
**A.** inconclusive [inhibitor, single point]

**Q.** Which Potency does the source give for O=C(OCC(=O)N1CCc2ccccc21)C1=COCCO1 here?
**A.** inconclusive [inhibitor, partial curve]

**Q.** Which Potency does the source give for O=C(NC1CCCN(Cc2ccccc2F)C1)C1CCC1 (stereo not given) here?
**A.** inconclusive [inhibitor, partial curve, poor fit]

**Q.** Which Potency does the source give for O=C(O)c1ccccc1C(=O)c1cccs1 here?
**A.** inconclusive [inhibitor, partial curve, poor fit]

**Q.** For Cc1ccc(N2C(=O)SC(N(CC(=O)O)c3cccc(C)c3)C2=O)cc1 (stereo not given), which “activity change, negative = inhibition” value is on record?
**A.** inactive: -13.7%

**Q.** Cc1cc(F)ccc1NC(=O)CCS(=O)(=O)c1cccc2nsnc12 was tested. Which “activity change, negative = inhibition” value did it give?
**A.** inactive: 2.13%

**Q.** How did the Potency turn out when COC(=O)C1=C(N)OC2=C(C(=O)CCC2)C1c1cccnc1 (stereo not given) was run?
**A.** inconclusive [inhibitor, partial curve, poor fit]

**Q.** Which Potency does the source give for CC(=O)Nc1ccc(S(=O)(=O)NCC2CCC(C(=O)NCCCN3CCCC3=O)CC2)cc1 (stereo not given) here?
**A.** inconclusive [inhibitor, partial curve]

**Q.** Which “activity change, negative = inhibition” value does the source give for NC(=S)N/N=C/c1ccc2c(c1)OCCO2 here?
**A.** inactive: 4.32%

**Q.** O=C1N/C(=N/O)S/C1=C\c1ccccc1-n1cccn1 was tested. Which Potency did it give?
**A.** inconclusive [inhibitor, full curve]

**Q.** O=C(CCCCCCCC(=O)NCC1CCCO1)NCC1CCCO1 (stereo not given) was tested. Which Potency did it give?
**A.** inconclusive [inhibitor, partial curve, poor fit]

**Q.** COc1ccc(NC(=O)c2c(NC(=O)c3cccc(C)c3)sc3c2CCC3)cc1 was tested. Which “activity change, negative = inhibition” value did it give?
**A.** inactive: 8.25%

**Q.** With O=C(Nc1ccccc1)OCCOc1ccc(Br)cc1 as the compound, how does the Potency read?
**A.** inconclusive [inhibitor, partial curve, poor fit]

**Q.** Cc1nc(N2CCN(C(=O)c3ccco3)CC2)c2c3c(sc2n1)CCC3 was tested. Which Potency did it give?
**A.** inconclusive [inhibitor, full curve, poor fit]

**Q.** For CC(C)CC1C(C#N)=C(N)Oc2n[nH]c(-c3ccccc3)c21 (stereo not given), which Potency is on record?
**A.** inconclusive [inhibitor, full curve, poor fit]

**Q.** Which “activity change, negative = inhibition” value does the source give for COc1ccccc1NS(=O)(=O)c1ccc2oc(SCc3ccc(C#N)cc3)nc2c1 here?
**A.** inactive: -7.63%

**Q.** Which Potency does the source give for COc1ccccc1N(CC(=O)NC1CCCCC1)S(C)(=O)=O here?
**A.** inconclusive [inhibitor, full curve, poor fit]
